Assay results as given in publication PMC4336329 (PLoS ONE, 2015).
The campaign covered roughly 310,000 compounds. About 2,200 (0.71%) showed an effect of 50% or more. The effect is printed as a negative number. The list shows a part of the results. *1 amine or outer side, *2 acyl side, *3 side chain or, on linkers, in order; H or OH if unused. Where a SMILES comes first, the peptide text is derived from it. Bridges are numbered along the chain shown (N, C = ends). [ ]: non-standard residue; d: D form. ξ: configuration not given here. hSer(Ph(2-I,4-NO2,6-CO)) = O=C([C@H](CCOc1c(I)cc([N+](=O)[O-])cc1C(=O)[*:3])N[*:1])[*:2]; ξD = NC(CC(=O)O)C(=O)O

The compounds below were run against human ether-à-go-go-related gene (hERG) potassium channel (human, UniProt Q12809) (assay: primary screen, population patch clamp on CHO cells stably expressing hERG).
human ether-à-go-go-related gene (hERG) potassium channel, sequence (Q12809 whole entry, looked up): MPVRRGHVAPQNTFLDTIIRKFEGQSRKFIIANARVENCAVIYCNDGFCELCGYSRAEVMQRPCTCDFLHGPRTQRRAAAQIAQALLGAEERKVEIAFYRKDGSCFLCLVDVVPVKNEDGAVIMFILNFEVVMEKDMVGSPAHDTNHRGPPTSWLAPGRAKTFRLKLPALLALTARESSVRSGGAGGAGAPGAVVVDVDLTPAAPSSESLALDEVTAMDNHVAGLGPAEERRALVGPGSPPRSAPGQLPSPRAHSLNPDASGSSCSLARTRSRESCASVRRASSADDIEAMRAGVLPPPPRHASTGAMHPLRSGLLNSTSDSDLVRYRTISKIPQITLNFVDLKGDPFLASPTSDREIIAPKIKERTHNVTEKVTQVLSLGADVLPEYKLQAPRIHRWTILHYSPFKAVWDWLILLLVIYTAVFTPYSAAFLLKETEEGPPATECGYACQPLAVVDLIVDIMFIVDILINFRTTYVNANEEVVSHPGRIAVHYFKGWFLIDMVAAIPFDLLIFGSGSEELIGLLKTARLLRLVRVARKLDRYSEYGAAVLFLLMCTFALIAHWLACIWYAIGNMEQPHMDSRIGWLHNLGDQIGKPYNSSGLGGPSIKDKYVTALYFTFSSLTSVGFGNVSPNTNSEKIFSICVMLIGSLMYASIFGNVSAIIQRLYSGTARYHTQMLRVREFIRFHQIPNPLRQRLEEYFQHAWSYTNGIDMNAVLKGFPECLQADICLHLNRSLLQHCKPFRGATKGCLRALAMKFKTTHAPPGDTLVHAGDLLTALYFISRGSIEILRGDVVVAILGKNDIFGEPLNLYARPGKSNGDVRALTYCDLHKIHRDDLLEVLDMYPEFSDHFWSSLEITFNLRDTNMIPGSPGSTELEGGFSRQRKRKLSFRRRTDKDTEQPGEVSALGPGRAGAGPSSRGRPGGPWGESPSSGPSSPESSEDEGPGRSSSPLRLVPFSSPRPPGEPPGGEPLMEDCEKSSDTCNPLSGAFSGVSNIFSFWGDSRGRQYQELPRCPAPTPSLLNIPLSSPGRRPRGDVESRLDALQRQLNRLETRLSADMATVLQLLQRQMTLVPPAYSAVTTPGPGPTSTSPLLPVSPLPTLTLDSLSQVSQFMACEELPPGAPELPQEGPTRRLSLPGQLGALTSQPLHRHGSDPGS

| Structure (SMILES) | hERG current change (%, negative = inhibition) at 1uM |
| --- | --- |
| COCC1CCN(C(=O)CC2C(=O)NCCN2Cc2cccc(Oc3ccccc3)c2)CC1 (centres unmarked) | 9.18% |
| CCN(CC)CC(=O)NN(Cc1ccccc1)c1ccccc1.O=C(O)C(=O)O | -20.8% |
| O=C(O)C(=O)O.O=C(c1ccccc1)c1ccc(OCC(O)CNCc2ccc(F)cc2)cc1 (centres unmarked) | -0.143% |
| N#Cc1ccc(C(=O)Nc2cccc3ccccc23)c(F)c1 | 13.2% |
| COc1cc2c(cc1OC)-c1nnc(-c3ccco3)n1C1(CCCC1)C2 | 5.39% |
| COc1ccccc1N1CCN(C2CCCN(C(=O)c3cc(C)oc3C)C2)CC1 (centres unmarked) | 11.9% |
| COc1ccc(N2CC(C(=O)OCC(=O)c3ccccc3)CC2=O)cc1 (centres unmarked) | 3.92% |
| O=C(CN(CC1CCCO1)C(=O)CNS(=O)(=O)c1ccc(F)cc1)NCc1ccc(F)cc1 (centres unmarked) | 10.8% |
| Cc1ccc(C)c(NC(=O)CN2C(=O)CNC2=O)c1 | 3.18% |
| CC(C(=O)Nc1cccc(C#N)c1)N(C)CCOc1ccccc1 (centres unmarked) | 7.36% |
| O=c1[nH]c2c(=O)[nH]cnc2nc1-c1ccccc1 | 4.97% |
| COCCNC(=O)CSc1n[nH]c(=O)n1CCc1ccccc1 | 13.7% |
| CSc1ccc(S(=O)(=O)N2CCC(C(=O)NCc3cccnc3)CC2)cc1 | -4.49% |
| O=[N+]([O-])c1ccc(NCc2ccc(Cl)cc2)c2ccncc12 | 15% |
| COc1ccc(OC)c(/C=N/NC(=O)CCc2n[nH]c(=O)[nH]c2=O)c1 | 6.32% |
| CC1=C(C(=O)Nc2ccccc2)C2(CCCCC2)C(C(N)=O)C(=S)N1 (centres unmarked) | -0.103% |
| CCCCCCCC(=O)NNC(=O)CC(=O)Nc1ccccc1C(=O)O | 8.74% |
| COc1ccc(S(=O)(=O)NCCSCc2ccccc2C)cc1Br | 4.03% |
| CCOC(=O)c1cccc(NC(=O)/C(=C\c2ccccc2)NC(=O)c2ccccc2Cl)c1 | 7.79% |
| COc1ccc(C2=NS(=O)(=O)N(C)C(C(=O)N(C)Cc3ccccc3)=C2)cc1 | -34.9% |
| COC(CNC(=O)c1ccc(-n2c(=S)[nH]c3ccccc3c2=O)cc1)OC | 1.5% |
| Cc1cc(-c2ccccc2)n2nc(C)c(-c3ccccc3)c2n1 | 3.83% |

| Structure (SMILES) | hERG current change (%, negative = inhibition) at 1uM |
| --- | --- |
| N/C(COc1cccc(Cl)c1)=N\NS(=O)(=O)c1ccccc1 | 9.81% |
| CCOC(=O)NC(=S)Nc1ccc(OC)cc1 | 7.86% |
| CC(C)c1ccc(OCc2nnc(SCC(=O)N3CCCCC3)o2)cc1 | 11.8% |
| O=C(c1ccc(F)cc1)c1cc2ccc(O)cc2oc1=O | 9.87% |
| CCN1C(=O)[C@@H]2C(C(=O)c3cnccn3)=NN[C@@H]2C1=O | 12.3% |
| COc1ccc(N(CC(=O)NCc2ccco2)C(=O)CNS(=O)(=O)c2ccc(Cl)cc2)cc1 | 6.58% |
| Cc1ccc(CNC(=O)C2CCCN2C(=O)Nc2ccc(C)cc2)cc1 (centres unmarked) | 12.4% |
| Cc1ccc(SCC(=O)NC2CCS(=O)(=O)C2)cc1 (centres unmarked) | 13.7% |
| Cn1c(SCc2ccccc2)nnc1-c1ccc2nonc2c1 | 6.9% |
| Cc1ccc(-n2nc(C(=O)O)cc2-c2ccccc2)cc1 | 18.9% |
| COc1ccccc1N1CCN(C(=O)c2cc(-c3ccc(Cl)c(Cl)c3)on2)CC1 | 6.91% |
| O=C1CC(N2CCSCC2)C(=O)N1c1cccc(Cl)c1 (centres unmarked) | 12.6% |
| CSc1cccc(NC(=S)N2CCC(c3ccccc3)C2)c1 (centres unmarked) | 13.3% |
| CC1CCC(NC(=O)c2cnccn2)CC1 (centres unmarked) | 14.1% |
| COc1ccc(C(=O)N/N=C(\C)CC(=O)Nc2cccc(C(F)(F)F)c2)cc1 | 7.5% |
| COCCNC(=O)CN(C(=O)CCC(=O)Nc1ccccn1)c1ccc(OC)cc1 | 15.2% |
| O=S(=O)(NCC1CCN(S(=O)(=O)c2ccccc2)CC1)c1ccccc1 | 9.17% |
| COc1ccc(C2=NN(C(N)=S)C(c3ccccc3)C2)cc1 (centres unmarked) | 6.97% |
| Cc1ccccc1OCC(=O)N/N=C/c1ccc(Sc2nc3ccccc3s2)o1 | 7.91% |
| CCc1nc2oc3ccccc3c(=O)c2c(=O)n1-c1ccccc1 | -0.853% |
| COc1ccc(CCn2c(=N)c(C(=O)N3CCN(C)CC3)cc3c(=O)n4ccccc4nc32)cc1 | -2.76% |
| Cc1ccc(S(=O)(=O)N2CCN(C(=O)COC(=O)c3c(C)cc(C)cc3C)CC2)c(C)c1 | 10.8% |

| Structure (SMILES) | hERG current change (%, negative = inhibition) at 1uM |
| --- | --- |
| COc1ccc(C(=O)/C=C2/C(=O)Nc3ccccc32)cc1 | 10.6% |
| COc1ccccc1NC(=O)Cn1cc(C(=O)C(=O)N2CCOCC2)c2ccccc21 | 19.5% |
| CCSc1nnc(NC(=O)C2CC(=O)N(Cc3ccccc3)C2)s1 (centres unmarked) | 10.1% |
| CSCCC1NC(=O)N(CC(=O)N2N=C(c3ccc(Cl)cc3)CC2c2ccco2)C1=O (centres unmarked) | 2.77% |
| COC(CNC(=O)C1CC(=O)N(CCc2ccccc2)C1)OC (centres unmarked) | -1.21% |
| COC(=O)N1C(=O)[C@](c2ccccc2)(C2CCCC2)N1C(=O)OC | 19.3% |
| CN(Cc1cnn(C)c1)C(=O)CC1C(=O)NCCN1Cc1cccc(Oc2ccccc2)c1 (centres unmarked) | 15.6% |
| COC(=O)Cc1ccc(NC(=O)C(c2ccccc2)c2ccccc2)cc1 | 17.3% |
| CCOC(=O)c1nnn(-c2nonc2N)c1-c1ccc(Cl)cc1 | 10.3% |
| CCC(C)NC(=O)c1c(N)n(CCCOC)c2nc3ccccc3nc12 (centres unmarked) | 12% |
| O=C(CCC(=O)N1CCN(S(=O)(=O)c2ccc(Cl)cc2)CC1)Nc1ccc2ccccc2c1 | 13.4% |
| Cc1ccc2nc3c(cc2c1)c(NC(=O)c1ccco1)nn3CC(C)C | 16.2% |
| CC1CCCCC1NC(=O)CSc1nnc(CN2CCOCC2)n1C (centres unmarked) | -0.94% |
| CC(C)(c1ccccc1)c1ccc(OCCCN2CCNCC2)cc1.O=C(O)C(=O)O | 8.83% |
| CCN(CC)S(=O)(=O)c1ccc(-c2nnc(SCC(=O)Nc3nc(C)cs3)o2)cc1 | 5.51% |
| Cc1nc(SC(C)C(=O)c2c(N)n(C)c(=O)n(C)c2=O)c2c(C)c(C)sc2n1 (centres unmarked) | 14.3% |
| Cc1ccc2nsnc2c1NC(=O)c1cncc(Br)c1 | 7.5% |
| Cc1nnn(C23C[C@@H]4C[C@@H](CC(C(=O)N5CCN(c6ccccc6)CC5)(C4)C2)C3)n1 | 3.57% |
| CC1CCN(C(=O)c2cccc(S(=O)(=O)N3CCCCC3)c2)CC1 | 2.17% |
| Cc1ccc(N2C(=O)C3C(c4ccccc4)(C2=O)C3(c2ccccc2)c2ccccc2)cc1 (centres unmarked) | 22.7% |
| COc1ccc(Br)cc1/C=N/N1CCN(Cc2ccccc2Cl)CC1 | 20.8% |
| Cc1ccc(S(=O)(=O)NCC(=O)N(CC2CCCO2)C(C(=O)NC2CCCCC2)C(C)C)cc1 (centres unmarked) | -10.2% |

| Structure (SMILES) | hERG current change (%, negative = inhibition) at 1uM |
| --- | --- |
| Cc1ccc(C(=O)NNC(=O)C2CCN(c3ncccn3)CC2)cc1 | 9.28% |
| C[C@@H]1NC(=O)[C@H](CCCN=C(N)N)NC(=O)c2cc([N+](=O)[O-])cc(I)c2OCC[C@@H](C(=O)NC(CC(=O)O)C(N)=O)NC1=O (some centres unmarked) (RA[hSer(Ph(2-I,4-NO2,6-CO))][ξD]-NH2; lactam N-3) | 16.3% |
| C/C(=N\NC(=O)c1nnn(-c2nonc2N)c1CN(C)c1ccccc1)c1cccs1 | 19.6% |
| Cc1ccc(CN2C3=NCCN3c3ccccc32)cc1.Cl | -23.5% |
| Cc1cc(F)ccc1NC(=O)CCc1ccc(S(=O)(=O)N2CCOCC2)cc1 | -12.6% |
| O=C(NNC(=S)Nc1ccccc1)c1cccc(S(=O)(=O)N2CCOCC2)c1 | 12.2% |
| CCOC(=O)c1c(S(=O)(=O)N2CCC(C)CC2)c(C)n(C)c1C | -3.38% |
| Cc1nn(-c2ccccc2)c(C)c1/C=N/NC(=O)c1cnccn1 | 7.89% |
| Cc1c(Cl)cccc1NC(=S)NC1CCN(Cc2ccccc2)CC1 | 2.28% |
| O=C1c2ccccc2C(=O)N1CCN1CCc2ccccc21 | 5.53% |
| CC1(C)CC(=O)C=C(c2ccc(I)cc2)C1 | 15.7% |
| COc1ccc(O)c(C(=O)CC(=O)c2ccccc2)c1 | 11.1% |
| CC(C(=O)NC(=O)NCc1ccccc1)N1C(=O)c2ccccc2C1=O (centres unmarked) | 5.47% |
| Cc1ccc(C2CCN(C(=O)Nc3ccc(F)cc3)C2)cc1 (centres unmarked) | 3.03% |
| O=C(CNC(=O)c1cccs1)NCC(=O)OCC(=O)c1ccccc1 | 10.1% |
| CC(C)c1[nH]nc2c1C(C1C=CCCC1)C(C#N)=C(N)O2 (centres unmarked) | 11.2% |
| CC(=O)Cn1c(C(F)(F)F)nc2ccccc21 | 8.13% |
| Cc1cc(OC(C)C(=O)NCc2ccncc2)c2c3c(c(=O)oc2c1)CCCC3 (centres unmarked) | -12.2% |
| CCOC(=O)c1cc2cc(OC)ccc2nc1C | -1.65% |
| COc1ccc(NC(=O)c2[nH]c(C)c(C(C)=O)c2C)cc1S(=O)(=O)Nc1ccc(Br)cc1 | 0.916% |
